According to the supplement of paper PMC6531468:
The list shows a part of the results. These are enrichments in a pooled selection; single values are uncertain. Scores sum up all selected molecules that hold the word; the word was not tested alone.

The sequences below were run on IMP3 KH1-2 (assay: 6-mer SELEX enrichment z-score vs GST control; IMP3 is the RNA-binding protein IGF2BP3; higher = more enriched by binding). Details: construct: KH1-2 (164-376); SELEX round: R4.
Experimental: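 SELEX-seq with GST-tagged IMP3 KH1-2 (Pro164-Phe376) and an N40 RNA pool, round 4 (stringent 300/600 mM KCl washes). 6-mer z-score of sequence-tag enrichment normalised to the corresponding GST SELEX round; RNA k-mers written as DNA (T for U).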

Sequence of IMP3 KH1-2 (chain, as listed by the source): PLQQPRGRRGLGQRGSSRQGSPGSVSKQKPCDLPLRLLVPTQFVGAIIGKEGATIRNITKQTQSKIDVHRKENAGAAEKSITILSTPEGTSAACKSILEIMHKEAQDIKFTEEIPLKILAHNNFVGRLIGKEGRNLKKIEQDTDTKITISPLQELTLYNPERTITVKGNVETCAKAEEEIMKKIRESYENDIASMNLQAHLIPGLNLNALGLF

Sequence	6-mer SELEX enrichment z-score
GGCCGG	0.792
CGTAGG	-0.821
CGAGTA	-1.15
TATATT	1.55
TCTATC	0.375
TCATCA	1.47
CACCCT	-0.844
ACCTTA	-0.527
TCGCAG	-0.226
ACTTTT	1.01
GTCTCA	-0.236
CAATGC	-0.054
CCAATA	0.332
TAGTAA	-0.062
TACTGA	0.419
ATATTT	1.82
TCGCGC	-0.654
TTGATC	0.033
ACCATC	0.318
GATATT	0.796

Sequence	6-mer SELEX enrichment z-score
AGGATC	0.017
GCATCG	0.397
CTCCTC	0.143
CTGAAT	0.099
AACTGT	0.166
GCTCAT	0.367
CTGTCA	0.251
ATGTTT	0.221
GTTTGC	-0.18
GTCATA	0.322
CTTAGG	-0.09
CCCCCT	0.467
GTAAAT	0.078
ACTATT	1.46
AGCCGG	0.026
AGCTGG	-0.077
GGTTAC	-0.246
GCGTCC	-0.734
CAAAAG	-1.73
ATGAAT	1.65
